{"source": "patent US20170122932A1", "about": "(MEDICAL AND BIOLOGICAL LABORATORIES, published 2017)", "binders": {"B1": {"name": "p53(70)-mAG1-PB1 (other, not shown: small tags and cut ends)", "chain": "[about 60 residues not written out]PGPDEAPRMPEAAMVSVIKPEMKIKLCMRGTVNGHNFVIEGEGKGNPYEGTQILDLNVTEGAPLPFAYDILTTVFQYGNRAFTKYPADIQDYFKQTFPEGYHWERSMTYEDQGICTATSNISMRGDCFFYDIRFDGTNFPPNGPVMQKKTLKWEPSTEKMYVEDGVLKGDVNMRLLLEGGGHYRCDFKTTYKAKKEVRLPDAHKIDHRIEILKHDKDYNKVKLYENAVARYSMLPSQAKTSNSADGGGGSGGSGGSGGGSTQGTGMASLTVKAYLLGKEDAAREIRRFSFCCSPEPEAEAEAAAGPGPCERLLSRVAALFPALRPGGFQAHYRDEDGDLVAFSSDEELTMAMSYVKDDIFRIYIKEK", "notes": "also called p53(70)-hmAG1-PB1"}, "B2": {"name": "p53(70)-PB1-mAG1 (other, not shown: small tags and cut ends)", "chain": "[about 60 residues not written out]PGPDEAPRMPEAAMASLTVKAYLLGKEDAAREIRRFSFCCSPEPEAEAEAAAGPGPCERLLSRVAALFPALRPGGFQAHYRDEDGDLVAFSSDEELTMAMSYVKDDIFRIYIKEKTGNSADGGGGSGGSGGSGGGSTQGTSMVSVIKPEMKIKLCMRGTVNGHNFVIEGEGKGNPYEGTQILDLNVTEGAPLPFAYDILTTVFQYGNRAFTKYPADIQDYFKQTFPEGYHWERSMTYEDQGICTATSNISMRGDCFFYDIRFDGTNFPPNGPVMQKKTLKWEPSTEKMYVEDGVLKGDVNMRLLLEGGGHYRCDFKTTYKAKKEVRLPDAHKIDHRIEILKHDKDYNKVKLYENAVARYSMLPSQAK", "notes": "also called p53(70)-PB1-hmAG1"}, "B3": {"name": "PB1-mCherry-FKBP12 mutant (other)", "chain": "MASLTVKAYLLGKEDAAREIRRFSFCCSPEPEAEAEAAAGPGPCERLLSRVAALFPALRPGGFQAHYRDEDGDLVAFSSDEELTMAMSYVKDDIFRIYIKE[about 100 residues not written out]", "notes": "also called PB1-mCherry-FKBP12 (F36V); not shown: mCherry fluorescent protein, Genbank AAV52164"}, "B4": {"name": "Tankyrase-mAG1-FKBP12 mutant (other, not shown: small tags and cut ends)", "chain": "MLIDAMPPEALPTCFKPQATVVSASLISPASTPSCLSAASSIDNLTGPLAELAVGGASNAGDGAAGTERKEGEVAGLDMNISQFLKSLGLEHLRDIFETEQITLDVLADMGHEELKEIGINAYGHRHKLIKGVERLLGGQQGTNPYLTFHCVNQGTILLDLAPEDKEYQSVEEEMQSTIREHRDGGNAGGIFNRYNVIRITGNSADGGGGSGGSGGSGGGSTQGTSMVSVIKPEMKIKLCMRGTVNGHNFVIEGEGKGNPYEGTQILDLNVTEGAPLPFAYDILTTVFQYGNRAFTKYPADIQDYFKQTFPEGYHWERSMTYEDQGICTATSNISMRGDCFFYDIRFDGTNFPPNGPVMQKKTLKWEPSTEKMYVEDGVLKGDVNMRLLLEGGGHYRCDFKTTYKAKKEVRLPDAHKIDHRIEILKHDKDYNKVKLYENAVARYSMLPSQA[about 100 residues not written out]", "notes": "also called Tankyrase-mAG1-FKBP12 (F36V); Tankyrase-hmAG1-FKBP12 mutant"}, "B5": {"name": "Tankyrase-mAG1-p53 (other, not shown: small tags and cut ends)", "chain": "MLIDAMPPEALPTCFKPQATVVSASLISPASTPSCLSAASSIDNLTGPLAELAVGGASNAGDGAAGTERKEGEVAGLDMNISQFLKSLGLEHLRDIFETEQITLDVLADMGHEELKEIGINAYGHRHKLIKGVERLLGGQQGTNPYLTFHCVNQGTILLDLAPEDKEYQSVEEEMQSTIREHRDGGNAGGIFNRYNVIRITGNSADGGGGSGGSGGSGGGSTQGTSMVSVIKPEMKIKLCMRGTVNGHNFVIEGEGKGNPYEGTQILDLNVTEGAPLPFAYDILTTVFQYGNRAFTKYPADIQDYFKQTFPEGYHWERSMTYEDQGICTATSNISMRGDCFFYDIRFDGTNFPPNGPVMQKKTLKWEPSTEKMYVEDGVLKGDVNMRLLLEGGGHYRCDFKTTYKAKKEVRLPDAHKIDHRIEILKHDKDYNKVKLYENAVARYSMLPSQAK[about 400 residues not written out]", "notes": "whole, on cells; also called Tankyrase-hmAG1-p53"}, "B6": {"name": "PKCi-mAG1-p53 (other, not shown: small tags and cut ends)", "chain": "MQVRVKAYYRGDIMITHFEPSISFEGLCNEVRDMCSFDNEQLFTMKWIDEEGDPCTVSSQLELEEAFRLYELNKDSELLIHVFPCTGNSADGGGGSGGSGGSGGGSTQGTSMVSVIKPEMKIKLCMRGTVNGHNFVIEGEGKGNPYEGTQILDLNVTEGAPLPFAYDILTTVFQYGNRAFTKYPADIQDYFKQTFPEGYHWERSMTYEDQGICTATSNISMRGDCFFYDIRFDGTNFPPNGPVMQKKTLKWEPSTEKMYVEDGVLKGDVNMRLLLEGGGHYRCDFKTTYKAKKEVRLPDAHKIDHRIEILKHDKDYNKVKLYENAVARYSMLPSQAK[about 400 residues not written out]", "notes": "whole, on cells; also called PKCi-hmAG1-p53"}, "B7": {"name": "TEL-mAG1-p53 (other, not shown: small tags and cut ends)", "chain": "MPRALRMEEDSIRLPAHLRLQPIYWSRDDVAQWLKWAENEFSLRPIDSNTFEMNGKALLLLTKEDFRYRSPHSGDVLYELLQHILKQRTGNSADGGGGSGGSGGSGGGSTQGTSMVSVIKPEMKIKLCMRGTVNGHNFVIEGEGKGNPYEGTQILDLNVTEGAPLPFAYDILTTVFQYGNRAFTKYPADIQDYFKQTFPEGYHWERSMTYEDQGICTATSNISMRGDCFFYDIRFDGTNFPPNGPVMQKKTLKWEPSTEKMYVEDGVLKGDVNMRLLLEGGGHYRCDFKTTYKAKKEVRLPDAHKIDHRIEILKHDKDYNKVKLYENAVARYSMLPSQAK[about 400 residues not written out]", "notes": "whole, on cells; also called TEL-hmAG1-p53"}, "B8": {"name": "DGKd-mAG1-p53 (other, not shown: small tags and cut ends)", "chain": "MPVHLWGTEEVAAWLEHLSLCEYKDIFTRHDIRGSELLHLERRDLKDLGVTKVGHMKRILCGIKELSRSTGNSADGGGGSGGSGGSGGGSTQGTSMVSVIKPEMKIKLCMRGTVNGHNFVIEGEGKGNPYEGTQILDLNVTEGAPLPFAYDILTTVFQYGNRAFTKYPADIQDYFKQTFPEGYHWERSMTYEDQGICTATSNISMRGDCFFYDIRFDGTNFPPNGPVMQKKTLKWEPSTEKMYVEDGVLKGDVNMRLLLEGGGHYRCDFKTTYKAKKEVRLPDAHKIDHRIEILKHDKDYNKVKLYENAVARYSMLPSQAK[about 400 residues not written out]", "notes": "whole, on cells; also called DGKd-hmAG1-p53"}, "B9": {"name": "PB1-mAG1-FKBP12 mutant (other, not shown: small tags and cut ends)", "chain": "MASLTVKAYLLGKEDAAREIRRFSFCCSPEPEAEAEAAAGPGPCERLLSRVAALFPALRPGGFQAHYRDEDGDLVAFSSDEELTMAMSYVKDDIFRIYIKEKTGNSADGGGGSGGSGGSGGGSTQGTSMVSVIKPEMKIKLCMRGTVNGHNFVIEGEGKGNPYEGTQILDLNVTEGAPLPFAYDILTTVFQYGNRAFTKYPADIQDYFKQTFPEGYHWERSMTYEDQGICTATSNISMRGDCFFYDIRFDGTNFPPNGPVMQKKTLKWEPSTEKMYVEDGVLKGDVNMRLLLEGGGHYRCDFKTTYKAKKEVRLPDAHKIDHRIEILKHDKDYNKVKLYENAVARYSMLPSQA[about 100 residues not written out]", "notes": "Expressed in HEK293 cells; Homodimer forms only through the drug B/B Homodimerizer (AP20187); also called PB1-hmAG1-FKBP12 mutant"}, "B10": {"name": "mAG1-PB1-p53 (other, not shown: small tags and cut ends)", "chain": "MVSVIKPEMKIKLCMRGTVNGHNFVIEGEGKGNPYEGTQILDLNVTEGAPLPFAYDILTTVFQYGNRAFTKYPADIQDYFKQTFPEGYHWERSMTYEDQGICTATSNISMRGDCFFYDIRFDGTNFPPNGPVMQKKTLKWEPSTEKMYVEDGVLKGDVNMRLLLEGGGHYRCDFKTTYKAKKEVRLPDAHKIDHRIEILKHDKDYNKVKLYENAVARYSMLPSQAKTSNSADGGGGSGGSGGSGGGSTQGTGMASLTVKAYLLGKEDAAREIRRFSFCCSPEPEAEAEAAAGPGPCERLLSRVAALFPALRPGGFQAHYRDEDGDLVAFSSDEELTMAMSYVKDDIFRIYIKEK[about 400 residues not written out]", "notes": "whole, on cells; Expressed inside U2OS cells; also called hmAG1-PB1-p53"}, "B11": {"name": "p53-mAG1-PB1 (other, not shown: small tags and cut ends)", "chain": "[about 400 residues not written out]MVSVIKPEMKIKLCMRGTVNGHNFVIEGEGKGNPYEGTQILDLNVTEGAPLPFAYDILTTVFQYGNRAFTKYPADIQDYFKQTFPEGYHWERSMTYEDQGICTATSNISMRGDCFFYDIRFDGTNFPPNGPVMQKKTLKWEPSTEKMYVEDGVLKGDVNMRLLLEGGGHYRCDFKTTYKAKKEVRLPDAHKIDHRIEILKHDKDYNKVKLYENAVARYSMLPSQAKTSNSADGGGGSGGSGGSGGGSTQGTGMASLTVKAYLLGKEDAAREIRRFSFCCSPEPEAEAEAAAGPGPCERLLSRVAALFPALRPGGFQAHYRDEDGDLVAFSSDEELTMAMSYVKDDIFRIYIKEK", "notes": "whole, on cells; Expressed inside U2OS cells; also called p53-hmAG1-PB1"}}, "key": {"PB1-MDM2": {"target": "PB1-MDM2", "test": "fluorescent foci in HEK293 cells; extinguished by 40 uM Nutlin-3"}, "PB1-mAG1-MDM2 [1]": {"target": "T1, PB1-mAG1-MDM2", "T1 construct": "also called PB1-hmAG1-MDM2", "test": "fluorescent foci in HEK293 cells, combination (A); extinguished by 40 uM Nutlin-3"}, "PB1-mAG1-MDM2 [2]": {"target": "T1, PB1-mAG1-MDM2", "test": "fluorescent foci in HEK293 cells, combination (B); extinguished by 40 uM Nutlin-3"}, "[3]": {"target": "the molecule itself", "test": "fluorescent foci in HEK293 cells; homodimer induced by 500 nM B/B Homodimerizer"}, "[4]": {"target": "the molecule itself", "test": "fluorescent foci in HEK293 cells; homomultimer formation of p53"}, "[5]": {"target": "the molecule itself", "test": "icy spot detection of fluorescent foci in HEK293 cells, when foci started to be seen after B/B Homodimerizer addition"}, "[6]": {"target": "the molecule itself", "test": "fluorescent foci in U2OS cells; homomultimer formation of p53"}}}
{"binder": "B1", "values": [{"measurement": "binding result", "setting": "PB1-MDM2", "value": "binds"}, {"measurement": "binding result", "setting": "PB1-mAG1-MDM2 [1]", "value": "binds"}]}
{"binder": "B2", "values": [{"measurement": "binding result", "setting": "PB1-mAG1-MDM2 [2]", "value": "binds"}]}
{"binder": "B3", "values": [{"measurement": "binding result", "setting": "[3]", "value": "binds"}]}
{"binder": "B4", "values": [{"measurement": "binding result", "setting": "[3]", "value": "binds"}]}
{"binder": "B5", "values": [{"measurement": "binding result", "setting": "[4]", "value": "binds"}]}
{"binder": "B6", "values": [{"measurement": "binding result", "setting": "[4]", "value": "binds"}]}
{"binder": "B7", "values": [{"measurement": "binding result", "setting": "[4]", "value": "binds"}]}
{"binder": "B8", "values": [{"measurement": "binding result", "setting": "[4]", "value": "binds"}]}
{"binder": "B9", "values": [{"measurement": "fluorescence intensity of foci relative to before the B/B Homodimerizer addition", "setting": "[5]", "value": 1.9, "unit": "times"}]}
{"binder": "B10", "values": [{"measurement": "binding result", "setting": "[6]", "value": "binds"}]}
{"binder": "B11", "values": [{"measurement": "binding result", "setting": "[6]", "value": "binds"}]}
